Target: T1, E7 colicin (Escherichia coli, UniProt Q47112)
T1 sequence (Q47112 1-576): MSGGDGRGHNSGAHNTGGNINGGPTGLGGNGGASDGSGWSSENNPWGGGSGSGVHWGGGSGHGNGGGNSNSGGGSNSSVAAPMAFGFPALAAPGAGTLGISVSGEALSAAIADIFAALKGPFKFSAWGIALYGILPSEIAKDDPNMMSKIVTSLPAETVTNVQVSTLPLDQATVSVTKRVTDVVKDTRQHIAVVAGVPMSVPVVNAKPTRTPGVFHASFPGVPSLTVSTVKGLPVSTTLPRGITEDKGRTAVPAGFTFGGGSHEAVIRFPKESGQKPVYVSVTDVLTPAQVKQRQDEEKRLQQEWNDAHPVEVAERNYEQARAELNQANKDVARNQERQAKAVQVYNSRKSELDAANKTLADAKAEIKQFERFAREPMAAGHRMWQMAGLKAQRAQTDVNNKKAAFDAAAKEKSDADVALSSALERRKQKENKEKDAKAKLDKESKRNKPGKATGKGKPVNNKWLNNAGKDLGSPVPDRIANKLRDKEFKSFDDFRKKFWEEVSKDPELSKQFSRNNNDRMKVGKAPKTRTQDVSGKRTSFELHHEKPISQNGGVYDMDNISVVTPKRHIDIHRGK
Assay: In vivo colicin activity measurements
Conditions: E. coli JM83 expressing the Im7 variant; in words

B1: Wildtype Im7: small helical protein that confers immunity to bacterial colicin E7 (protein)
chain: MELKNSISDYTEAEFVQLLKEIEKENVAATDDVLDVLLEHFVKITEHPDGTDLIYYPSDNRDDSPEGIVKEIKEWRAANGKPGFKQG
ability to inhibit killing by exogenously added colicin E7: could survive the maximum concentration of applied colicin

Source: patent US8986997B2, “Methods and compositions for increasing biological molecule stability” (The Regents of the University of Michigan, priority 2007, dated 2015)
